Data published in the supplement of paper PMC10126150.
Values marked as one replicate rest on one cluster of the flow cell; about a third of the high ones do not repeat.

System: ATP
Assay: switch fluorescence ratio, 500 uM ATP over buffer (Cy3 cluster intensity, sum of 5 cycles each) (fold (ratio)); higher = stronger signal-on switching upon ATP binding; sequences stand for … in TCGTCGGCAGCGTCAGATGTGTATAAGAGACAGTTTTTTTTTTTTTTTTTTTTTTTTT…TC
Settings: aptamer strand: ATP DNA aptamer (quencher-CACCTGGGGGAGTATTGCGGAGGAAGG + anchor), 100 nM annealed; ATP concentration: 500 uM; one replicate
Procedure, shortened: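 Clusters with intensities outside 100-1000 RFU were excluded. The remaining Cy3-labelled switching-strand clusters on a modified Illumina MiSeq flow-cell had been annealed to 100 nM quencher-labelled ATP aptamer and imaged in selection buffer, then after 15 min with 500 uM ATP at 22 °C, for five cycles separated by NaOH stripping and re-annealing. The fluorescence ratio, averaged per switch-domain sequence, is each cluster's summed target-cycle Cy3 intensity over its summed buffer-cycle Cy3 intensity.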
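Further: ATP exposure 15 min at 22 °C before imaging.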

| Sequence | switch fluorescence ratio |
| --- | --- |
| CCCCGGTTAT | 1.65 |
| TTTTCAATCA | 0.99 |
| GGGTTAAAGC | 0.959 |
| CCTATTGTTG | 0.959 |
| AGCAGGCCGT | 0.891 |
| CGGTGAGTAC | 0.992 |
| CTATACTATG | 0.993 |
| AGACGGCCTT | 1.02 |
| TGCGTATACT | 0.982 |
| TGCCACGCTT | 0.986 |
| TCCTGGACTT | 1.21 |
| TAGGATATAC | 1.16 |
| CCCCGTACGG | 1.01 |
| GGGTAGTGTC | 0.971 |
| GCGGGAAGAA | 0.982 |
| TATAAGGCCT | 1.03 |
| CGTGGCTGTT | 0.972 |
| GTGCATATGG | 1.04 |
| GATAAAAGA | 0.971 |
| CTAGCCCTAC | 1.6 |
| ATTATAGAAC | 0.961 |
| AAAAACCTAA | 0.943 |
| GTCCCAATTC | 3.28 |

| Sequence | switch fluorescence ratio |
| --- | --- |
| GCACTAGATA | 1.03 |
| TACGTATGCA | 1.05 |
| CTGGCCAAG | 1.02 |
| GATACAATGG | 1.89 |
| TATGTAAC | 1.02 |
| TGGGTCGGAT | 0.955 |
| TTAGGTGTAG | 1.02 |
| GCTGACCCTG | 0.997 |
| ATGACGGCTT | 1.02 |
| AGAGCTTAGG | 1 |
| TCCTAGAACC | 1.08 |
| GGTCGGGTAA | 0.942 |
| ACTAACTATT | 1.08 |
| TCATGCATTG | 0.945 |
| TCGCATGAGG | 0.984 |
| TGTTCAAAAG | 1.05 |
| GGCGTGCT | 0.965 |
| GTAACGCGCA | 1.07 |
| GGCCAGTTCC | 1.01 |
| TTAACGAAA | 0.985 |
| TCTAGCCCCA | 1.06 |
| AACACCTAAC | 1.4 |
| GAGCATCAAA | 1.01 |

| Sequence | switch fluorescence ratio |
| --- | --- |
| GCGACTGGGG | 0.983 |
| TACCTGCTGC | 1.05 |
| CATGGTTCCT | 1 |
| CCAACGAAAA | 1 |
| GTGTGTTGTT | 0.98 |
| CATGTACGGA | 1.1 |
| CCGCTGAAA | 1.05 |
| CGGGTAGGAG | 0.993 |
| TCATGTAGGT | 0.984 |
| TTAATCCAGA | 0.977 |
| GCTCTGCTAG | 1.43 |
| CAGGAATGGT | 0.996 |
| TTACGCTTGG | 1.01 |
| AAGAAGTAGC | 1.03 |
| TTATATTATT | 1.06 |
| GTAGCTATTT | 1.09 |
| CTTAGCTACG | 1.02 |
| CACTGGGGCG | 1.03 |
| AAAATTGGAC | 0.994 |
| TACCGGGTA | 0.987 |
| CCTGCAGCGG | 1.76 |
| CGTGGGAAGG | 1.02 |
| CGCGTTATCA | 1.05 |

| Sequence | switch fluorescence ratio |
| --- | --- |
| GACTGGTAGG | 0.979 |
| GCATGCCCCG | 0.976 |
| AAGGAAGAAG | 1.01 |
| TCCGTTCCTT | 1.05 |
| ATTAAACGTT | 1.01 |
| GACATTGGA | 0.977 |
| ATAGTCAGGT | 0.984 |
| TTTGCTTGTG | 0.994 |
| GTCATAAGAG | 1.05 |
| GAAGGTAAAG | 1.04 |
| AACTTTATGT | 1.03 |
| CGACAGACCG | 1.05 |
| CCTAAGTCTA | 1.04 |
| GGAATTGAAT | 1.02 |
| CGGCCCCTGG | 1.16 |
| GCCATACGTC | 1.14 |
| CAGGTCGATC | 1 |
| CCTATGGTTA | 1.04 |
| ATTAAGCCTG | 0.96 |
| CCTATGGTAC | 3.59 |
| TCCGCCAAAT | 3.02 |
| GCGTAACGTC | 1 |
| ACTTAGGGG | 1.05 |

| Sequence | switch fluorescence ratio |
| --- | --- |
| TCGCGGAAC | 2.44 |
| ATATGGACAT | 1.05 |
| TACTCCCTTG | 1.46 |
| GGACCTGTGT | 1.01 |
| GGCAGTTACT | 1.06 |
| AATTGGGTAG | 1.02 |
| TCCCTCCTAC | 2.36 |
| ATTAGCGCAG | 1 |
| GCGGCTAATG | 0.967 |
| ATAATACTTC | 1.12 |
| TACATAACAT | 1.08 |
| CCTTTCTGCT | 1.04 |
| TTAAGCCCCA | 1.01 |
| CACACTCTGG | 1.01 |
| ACCCGCCCGC | 2.19 |
| GGCTGCCTTT | 0.987 |
| TATGTTCAC | 0.944 |
| TGGTATGGAG | 1.04 |
| ATGTAGGTGG | 0.973 |
| CTGGTATTTA | 0.965 |
| AATGTCAATC | 1.05 |
| AATAAGTCTA | 1.01 |
| ACTTTTGATT | 0.957 |

| Sequence | switch fluorescence ratio |
| --- | --- |
| AACTTTCAAA | 1.01 |
| ATTCGCATCT | 1.14 |
| AACTTAAGAT | 0.987 |
| CTAAACAAAA | 1.04 |
| GTGTCTTTGC | 0.952 |
| TAGTTAGCCT | 1.02 |
| CTCCAATGTA | 1.39 |
| GATCCCACGC | 1.17 |
| GGGAAAAACC | 1.03 |
| CCAACTATTG | 0.965 |
| ACTGTGGTGG | 1.01 |
| CGAGGTTTG | 1.02 |
| GACGGTCTG | 0.955 |
| ACGTATAGTT | 1.06 |
| GGTTCATATA | 1.02 |
| TCTTAGTGTT | 0.958 |
| TCCGTGATGA | 1 |
| GAATGTCTGT | 1.03 |
| ATTGGCGCAG | 0.995 |
| TGCCTTTGTG | 0.966 |
| TACCCCAAAC | 1.25 |
| CATTTTATTA | 1.03 |
| GTCTGAGATA | 0.988 |

| Sequence | switch fluorescence ratio |
| --- | --- |
| CAGCAACCAT | 1.04 |
| ACTGGTAAAG | 0.984 |
| TAAGCTTGCT | 1.02 |
| TTCAGCATTA | 1.14 |
| AAGCCGGGT | 0.935 |
| AGAGGGGCTG | 0.954 |
| CAACTCATA | 1.04 |
| GTGGGCTTTA | 1.03 |
| CACGTTAGCA | 1.08 |
| TTCGAAACCC | 1.01 |
| CGTCAATATG | 1.68 |
| TCGCTGCGGG | 1 |
| ATTACTTTGA | 1.07 |
| TGGGTCAGGC | 1.01 |
| CGGGTCGCGT | 0.996 |
| ACGGACAAGG | 1.08 |
| CCCTGACACG | 1.01 |
| TTGTAGGGTG | 1.01 |
| CATGGATTTG | 0.996 |
